{"source": "ChEMBL document CHEMBL1201862", "about": "“PubChem BioAssay data set” (2004)", "note": "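1) Cells in 96-well plates. 2) Compound, 48 h, 5 concentrations. 3) Linear interpolation between surrounding doses. 4) Unreached endpoint = highest concentration. GI50 = concentration required for 50% inhibition of growth.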 Calls of active or inactive are those of the source. Rule as the data show it: active = GI50 up to about 1.1 µM and inactive = higher."}
{"system": "NCI-H322M", "experiment": "inhibition of tumour cell growth, NCI panel, 48 h"}
{"compound": "O=C1NCN(c2ccccc2)C12CCN(CCc1ccc3[nH]c(=S)[nH]c3c1)CC2", "GI50": "inactive: 38.7 µM"}
{"compound": "CCN(CC)c1ccc2c(c1)Oc1ccc(N(C(C)=O)c3ccccc3)cc1C21OC(=O)c2ccccc21", "note": "(stereo not given)", "GI50": "inactive: > 100 µM"}
{"compound": "N#CC1=C2Sc3ccccc3N2[C@H](c2ccccc2)[C@H]2COC(=O)[C@@H]12", "GI50": "inactive: > 100 µM"}
{"compound": "Cc1cc(Cc2c(F)c(F)c(Cc3cc(C)no3)c(F)c2F)on1", "GI50": "inactive: > 100 µM"}
{"compound": "CCNCCNC(=O)c1ccc(Br)cc1", "GI50": "inactive: > 100 µM"}
{"compound": "C[C@]12CCC(=O)C(O)=C1CC[C@@H]1[C@@H]2CC[C@]2(C)C(=O)CC[C@@H]12", "note": "[FORMESTANE]", "GI50": "inactive: > 100 µM"}
{"compound": "COc1ccc(S(=O)(=O)NC(C)C(=O)O)cc1", "note": "(stereo not given)", "GI50": "inactive: > 100 µM"}
{"compound": "C[Si](C)(C)[C@@]1([Se]c2ccccc2)CC[C@@H]1C(=O)c1ccccc1", "GI50": "inactive: > 100 µM"}
{"compound": "CN(C)C(=O)OC(Cn1cncn1)c1ccc(Cl)cc1Cl", "note": "(stereo not given)", "GI50": "inactive: > 100 µM"}
{"compound": "COC(=O)C(CC1=C(O)Nc2ccccc2N1)/C(=N/NC(N)=O)C(=O)Nc1ccccc1C", "note": "(stereo not given)", "GI50": "inactive: > 100 µM"}
{"compound": "CCCCCCCCCCCCCCCCOP(=O)(O)OP(=O)(O)OCC1OC(n2ccc(N)nc2=O)CC1O", "note": "(stereo not given)", "GI50": "inactive: > 100 µM"}
{"compound": "O=C1CSc2cc([N+](=O)[O-])ccc2N1", "GI50": "inactive: > 100 µM"}
{"compound": "CC(C)(C)OC(=O)NC(Cc1ccc(OCc2ccccc2)cn1)C(=O)NCc1ccccc1", "note": "(stereo not given)", "GI50": "inactive: 48.3 µM"}
{"compound": "CC[C@H](C)[C@H]1NC(=O)[C@@H](NC(=O)[C@@H](CC(C)C)N(C)C(=O)C2CCCN2C(=O)[C@H](C)O)[C@@H](C)OC(=O)[C@H](Cc2ccc(OC)cc2)N(C)C(=O)[C@@H]2CCCN2C(=O)[C@H](CCCCNC(=O)OCc2ccccc2)NC(=O)[C@H](C)C(=O)[C@H](C(C)C)OC(=O)C[C@@H]1O", "note": "(stereo not given in full)", "GI50": "inactive: 1.49 µM"}
{"compound": "CC[C@@]1(O)C(=O)OCc2c1cc1n(c2=O)Cc2cc3cc4c(cc3nc2-1)OCO4", "GI50": "active: 0.0171 µM"}
{"compound": "CCCCCCC(=O)C/C(=N/NC(N)=S)C(=O)NC1C2CC3CC(C2)CC1C3", "note": "(stereo not given)", "GI50": "inactive: > 100 µM"}
{"compound": "Cc1[nH]n(C(=N)N)c(=O)c1CCO", "GI50": "inactive: > 100 µM"}
{"compound": "COC1=CC(=O)[C@H]2[C@H](C)C(c3ccccc3)[C@@]2(C)C1=O", "note": "(stereo not given in full)", "GI50": "inactive: > 100 µM"}
{"compound": "CN(C)CC(/C(Cc1ccccc1)=N\\NC(=O)C[n+]1ccccc1)c1ccccc1", "note": "(stereo not given)", "GI50": "inactive: > 100 µM"}
{"compound": "COc1ccc(N2C(=O)C3c4[nH]c5ccccc5c4C4CCCCC4C3C2=O)cc1", "note": "(stereo not given)", "GI50": "inactive: 16.5 µM"}
{"compound": "O=[N+]([O-])/C=C/c1ccc2ccccc2c1", "GI50": "inactive: 24.2 µM"}
{"compound": "CCCCCCC(O)C(=O)OC1C2C(CC1(C)C)C(O)C13OC1C(O)C1(CO1)[C@@]23C", "note": "(stereo not given in full)", "GI50": "inactive: > 100 µM"}
{"compound": "COc1ccc(/C=C2\\CCC(Cc3ccccc3)(CN(C)C)C2=O)cc1", "note": "(stereo not given)", "GI50": "inactive: > 100 µM"}
{"compound": "OC(CN(CCCl)CCCl)C(O)C(O)C(O)CN(CCCl)CCCl", "note": "(stereo not given)", "GI50": "inactive: > 100 µM"}
{"compound": "O=c1[nH]nc(Cc2ccc(Cl)cc2)n1/N=C/c1ccc([N+](=O)[O-])o1", "GI50": "inactive: 3.81 µM"}
{"compound": "O=CN1CCN(C(=O)c2ccco2)C1=S", "GI50": "inactive: 20.7 µM"}
{"compound": "CCCS(=O)(=O)Nc1ccc(Nc2c3ccccc3nc3ccccc23)c(OC)c1", "GI50": "inactive: 4.26 µM"}
{"compound": "CSC(=N/C=C/c1ccccc1)SC", "GI50": "inactive: > 100 µM"}
{"compound": "CC1CNC(c2ccc(-c3nc(-c4ccc(C5=NC(C)CN5)cc4)nc(N(C)C)n3)cc2)=N1", "note": "(stereo not given)", "GI50": "inactive: 1.29 µM"}
{"compound": "c1ccc(-c2cn3nc(N4CCOCC4)sc3n2)cc1", "GI50": "inactive: > 100 µM"}
{"compound": "Cc1ccc(S(=O)(=O)OC2CC=CC2)cc1", "GI50": "inactive: > 100 µM"}
{"compound": "O=C(c1ccccc1)C(C(=O)c1ccccc1)c1nc2ccccc2sc1=O", "GI50": "inactive: 11.5 µM"}
{"compound": "CC(C)(C)c1ccc(O)c(CN(Cc2cc(C(C)(C)C)ccc2O)c2ccccc2)c1", "GI50": "inactive: 16.1 µM"}
{"compound": "Cc1nc2ccc(NC3OC(CO)C(O)C(O)C3O)cc2c(=O)n1-c1ccccc1", "note": "(stereo not given)", "GI50": "inactive: > 100 µM"}
{"compound": "CN(C)CCCc1c2ccccc2nc2ccc(Cl)cc12", "GI50": "inactive: 11.7 µM"}
